# In PMC4428439:
# No constants are given. Whether binding was seen depends on the method and setting. For some of these results: In cells and extracts the contact can be indirect. Some entries that bind do so weakly or less than the wild type. Tags and fused reporters may be left off the sequences shown.
# T1: His6-IraP (E. coli) (UniProt P0AAN9)
# T1 sequence: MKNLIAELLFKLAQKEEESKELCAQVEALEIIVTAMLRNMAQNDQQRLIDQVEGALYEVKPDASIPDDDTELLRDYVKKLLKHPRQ
# T2: His6-IraM (E. coli) (UniProt P75987)
# T2 sequence: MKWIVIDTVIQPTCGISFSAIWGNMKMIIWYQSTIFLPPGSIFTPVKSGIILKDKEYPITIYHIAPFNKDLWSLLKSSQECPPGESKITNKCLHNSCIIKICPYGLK
# T3: His10-tagged IraD (E. coli) (UniProt P39375)
# T3 sequence: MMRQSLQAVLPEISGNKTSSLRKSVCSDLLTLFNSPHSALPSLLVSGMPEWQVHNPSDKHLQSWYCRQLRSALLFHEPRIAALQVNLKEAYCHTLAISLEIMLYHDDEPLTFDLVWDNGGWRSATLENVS
# Columns and labels:
# His6-IraP (E. coli) = target: T1, His6-IraP (E. coli); test: pull-down; soluble lysates of BL21(DE3) codon+ cells overexpressing untagged RssB (full-length wild type or mutant, or single domains) with or without His6-IraM or His6-IraP; extraction buffer (20 mM Tris-HCl pH 7.9, 500 mM NaCl, 10% glycerol, 10 mM imidazole, 1% Triton X-100); Ni-NTA agarose, 30 min at 4°C; eluted with imidazole; immunoblotting
# His6-IraM (E. coli) [1] = target: T2, His6-IraM (E. coli); test: as above
# His6-IraM (E. coli) [2] = target: T2, His6-IraM (E. coli); test: pull-down; in trans binding: soluble lysate with His6-IraP or His6-IraM (with or without RssBC) supplemented with 250 μg of RssBN; Ni-NTA agarose, 30 min at 4°C; eluted with imidazole; only the binder purified
# [3] = target: T3, His10-tagged IraD (E. coli); test: pull-down; purified His10-tagged IraD immobilised on Ni-NTA agarose beads; purified untagged RssB, RssBN or RssBC added; washed, eluted with imidazole; SDS-PAGE, CBB; both purified
Binder,binding (His6-IraP (E. coli)),binding (His6-IraM (E. coli) [1]),binding (His6-IraM (E. coli) [2]),binding [3]
"RssBC (residues 131-337), untagged, overexpressed in lysate (domain or fragment, UniProt P0AEV1 131-337) SRVEEEERLFRDWDAMVDNPAAAAKLLQELQPPVQQVISHCRVNYRQLVAADKPGLVLDIAALSENDLAFYCLDVTRAGHNGVLAALLLRALFNGLLQEQLAHQNQRLPELGALLKQVNHLLRQANLPGQFPLLVGYYHRELKNLILVSAGLNATLNTGEHQVQISNGVPLGTLGNAYLNQLSQRCDAWQCQIWGTGGRLRLMLSAE",binds,binds,,
"RssB, full-length, untagged, overexpressed in lysate (protein, UniProt P0AEV1 1-337) MTQPLVGKQILIVEDEQVFRSLLDSWFSSLGATTVLAADGVDALELLGGFTPDLMICDIAMPRMNGLKLLEHIRNRGDQTPVLVISATENMADIAKALRLGVEDVLLKPVKDLNRLREMVFACLYPSMFNSRVEEEERLFRDWDAMVDNPAAAAKLLQELQPPVQQVISHCRVNYRQLVAADKPGLVLDIAALSENDLAFYCLDVTRAGHNGVLAALLLRALFNGLLQEQLAHQNQRLPELGALLKQVNHLLRQANLPGQFPLLVGYYHRELKNLILVSAGLNATLNTGEHQVQISNGVPLGTLGNAYLNQLSQRCDAWQCQIWGTGGRLRLMLSAE",binds,binds,,
"RssBN (residues 1-129), untagged, overexpressed in lysate (domain or fragment, UniProt P0AEV1 1-129) MTQPLVGKQILIVEDEQVFRSLLDSWFSSLGATTVLAADGVDALELLGGFTPDLMICDIAMPRMNGLKLLEHIRNRGDQTPVLVISATENMADIAKALRLGVEDVLLKPVKDLNRLREMVFACLYPSMF",,binds,,
"RssBN, N-terminal domain of RssB (residues 1-129), untagged, purified (domain or fragment, UniProt P0AEV1 1-129) MTQPLVGKQILIVEDEQVFRSLLDSWFSSLGATTVLAADGVDALELLGGFTPDLMICDIAMPRMNGLKLLEHIRNRGDQTPVLVISATENMADIAKALRLGVEDVLLKPVKDLNRLREMVFACLYPSMF",,,binds,
"RssBC, C-terminal domain of RssB (residues 131-337), untagged, purified (domain or fragment, UniProt P0AEV1 131-337) SRVEEEERLFRDWDAMVDNPAAAAKLLQELQPPVQQVISHCRVNYRQLVAADKPGLVLDIAALSENDLAFYCLDVTRAGHNGVLAALLLRALFNGLLQEQLAHQNQRLPELGALLKQVNHLLRQANLPGQFPLLVGYYHRELKNLILVSAGLNATLNTGEHQVQISNGVPLGTLGNAYLNQLSQRCDAWQCQIWGTGGRLRLMLSAE",,,,no binding
